According to the supplement of paper PMC6451100:
This is one part of the list. Values come from read counts of a selection and are noisy.
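Also: Per-sequence enrichment computed with FASTAptamer, counting only reads that carry the expected constant 3′ region.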

Each sequence was assayed against T1, Drosophila AGO2 (FLAG-tagged, S2-R+ lysate) (UniProt Q9VUQ5) (assay: AGO2 loading enrichment factor (IP read count / input read count, not library-size normalised) (ratio); higher = more efficient loading into AGO2). Conditions: randomized region: 5' 5N of miR-317 loop.
T1 sequence: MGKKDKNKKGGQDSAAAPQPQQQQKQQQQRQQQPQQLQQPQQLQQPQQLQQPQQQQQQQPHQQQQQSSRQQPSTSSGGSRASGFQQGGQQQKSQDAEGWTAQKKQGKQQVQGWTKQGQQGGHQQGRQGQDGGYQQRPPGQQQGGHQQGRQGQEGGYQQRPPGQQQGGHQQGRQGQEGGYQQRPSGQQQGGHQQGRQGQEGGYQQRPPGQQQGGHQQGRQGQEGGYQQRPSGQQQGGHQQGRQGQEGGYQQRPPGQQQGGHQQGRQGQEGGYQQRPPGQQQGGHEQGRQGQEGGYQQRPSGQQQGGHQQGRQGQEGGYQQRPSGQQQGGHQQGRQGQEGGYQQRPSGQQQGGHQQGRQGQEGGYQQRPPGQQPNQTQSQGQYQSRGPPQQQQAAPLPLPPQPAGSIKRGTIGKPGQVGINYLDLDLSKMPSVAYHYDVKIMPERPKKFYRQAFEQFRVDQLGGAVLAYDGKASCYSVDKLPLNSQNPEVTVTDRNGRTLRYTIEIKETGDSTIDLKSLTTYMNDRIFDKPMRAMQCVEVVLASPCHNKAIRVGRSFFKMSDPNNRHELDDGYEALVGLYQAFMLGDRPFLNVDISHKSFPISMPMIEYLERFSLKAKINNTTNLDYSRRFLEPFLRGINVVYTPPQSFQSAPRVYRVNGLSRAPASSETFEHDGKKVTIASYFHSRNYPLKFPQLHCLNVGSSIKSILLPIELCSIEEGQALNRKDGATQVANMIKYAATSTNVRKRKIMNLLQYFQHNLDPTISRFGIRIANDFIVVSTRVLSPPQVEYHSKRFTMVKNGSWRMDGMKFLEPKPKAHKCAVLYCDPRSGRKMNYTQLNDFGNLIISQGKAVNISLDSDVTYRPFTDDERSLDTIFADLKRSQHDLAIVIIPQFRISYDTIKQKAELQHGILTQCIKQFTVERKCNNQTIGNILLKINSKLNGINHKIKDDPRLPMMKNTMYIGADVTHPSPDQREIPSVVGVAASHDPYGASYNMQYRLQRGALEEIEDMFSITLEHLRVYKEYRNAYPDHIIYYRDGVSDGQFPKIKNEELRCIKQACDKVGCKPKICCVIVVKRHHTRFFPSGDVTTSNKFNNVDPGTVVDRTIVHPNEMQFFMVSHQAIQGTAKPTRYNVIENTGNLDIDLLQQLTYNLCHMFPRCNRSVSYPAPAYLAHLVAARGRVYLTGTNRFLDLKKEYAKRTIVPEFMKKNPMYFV
Procedure: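 HISSA: 5'-phosphorylated, 32P-labelled 20-nt ssRNA oligos (miR-317 loop, first 5 nt randomized, constant 3' part TGAAATGCAAGCAAG as printed in methods; DNA letters for RNA) incubated 1 h at 25°C in lysate of S2-R+ cells expressing FLAG-AGO2. FLAG-AGO2 was immunopurified and bound oligos were sequenced after splinted ligation. Enrichment factor = IP read count / input read count (raw counts, not library-size normalised); single library, no replicates.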
With GGATTTGAAATGCAAGCAAG the “AGO2 loading enrichment factor” value was 0.517. With AACACTGAAATGCAAGCAAG the “AGO2 loading enrichment factor” value was 0.41. In the case of CCATATGAAATGCAAGCAAG, the “AGO2 loading enrichment factor” value is reported as 0.515. TTCATTGAAATGCAAGCAAG was tested, and the “AGO2 loading enrichment factor” value was 0.511. For CAATTTGAAATGCAAGCAAG, the “AGO2 loading enrichment factor” value was 0.303. With TCGTTTGAAATGCAAGCAAG the “AGO2 loading enrichment factor” value was 0.177. In the case of ATGTCTGAAATGCAAGCAAG, the “AGO2 loading enrichment factor” value is reported as 0.407. In the case of TCACCTGAAATGCAAGCAAG, the “AGO2 loading enrichment factor” value is reported as 0.269. With TGAAATGAAATGCAAGCAAG the “AGO2 loading enrichment factor” value was 0.504. With GCAAGTGAAATGCAAGCAAG the “AGO2 loading enrichment factor” value was 0.12. GTTACTGAAATGCAAGCAAG was tested, and the “AGO2 loading enrichment factor” value was 0.383. In the case of AGGCATGAAATGCAAGCAAG, the “AGO2 loading enrichment factor” value is reported as 0.302. In the case of CTACGTGAAATGCAAGCAAG, the “AGO2 loading enrichment factor” value is reported as 0.533. In the case of GTCCGTGAAATGCAAGCAAG, the “AGO2 loading enrichment factor” value is reported as 0.828. For CGTTATGAAATGCAAGCAAG, the “AGO2 loading enrichment factor” value was 0.333. With CGTTGTGAAATGCAAGCAAG the “AGO2 loading enrichment factor” value was 0.656. ATTTATGAAATGCAAGCAAG was tested, and the “AGO2 loading enrichment factor” value was 0.421. For CACCGTGAAATGCAAGCAAG, the “AGO2 loading enrichment factor” value was 0.319. With GTGAGTGAAATGCAAGCAAG the “AGO2 loading enrichment factor” value was 0.343. For ACCCGTGAAATGCAAGCAAG, the “AGO2 loading enrichment factor” value was 0.47. AGGCTTGAAATGCAAGCAAG was tested, and the “AGO2 loading enrichment factor” value was 0.184. For AGGGATGAAATGCAAGCAAG, the “AGO2 loading enrichment factor” value was 2.69. In the case of TTGTATGAAATGCAAGCAAG, the “AGO2 loading enrichment factor” value is reported as 0.117. AGATTTGAAATGCAAGCAAG was tested, and the “AGO2 loading enrichment factor” value was 0.363. In the case of ATATATGAAATGCAAGCAAG, the “AGO2 loading enrichment factor” value is reported as 0.515. CATCTTGAAATGCAAGCAAG was tested, and the “AGO2 loading enrichment factor” value was 0.0602. TATGATGAAATGCAAGCAAG was tested, and the “AGO2 loading enrichment factor” value was 0.335. With ATACCTGAAATGCAAGCAAG the “AGO2 loading enrichment factor” value was 0.419. In the case of ACCTTTGAAATGCAAGCAAG, the “AGO2 loading enrichment factor” value is reported as 0.319. In the case of TACAGTGAAATGCAAGCAAG, the “AGO2 loading enrichment factor” value is reported as 0.356. In the case of GCCCGTGAAATGCAAGCAAG, the “AGO2 loading enrichment factor” value is reported as 0.219. For AGTATTGAAATGCAAGCAAG, the “AGO2 loading enrichment factor” value was 0.369. In the case of GCCGCTGAAATGCAAGCAAG, the “AGO2 loading enrichment factor” value is reported as 0.0671. In the case of GCCCCTGAAATGCAAGCAAG, the “AGO2 loading enrichment factor” value is reported as 0.199. With AATCGTGAAATGCAAGCAAG the “AGO2 loading enrichment factor” value was 0.513. In the case of TAACTTGAAATGCAAGCAAG, the “AGO2 loading enrichment factor” value is reported as 0.0752. With CTGCGTGAAATGCAAGCAAG the “AGO2 loading enrichment factor” value was 0.396. For TGCCCTGAAATGCAAGCAAG, the “AGO2 loading enrichment factor” value was 0.325. In the case of GTGCGTGAAATGCAAGCAAG, the “AGO2 loading enrichment factor” value is reported as 0.377. With AAACTTGAAATGCAAGCAAG the “AGO2 loading enrichment factor” value was 0.0484. With ATCTCTGAAATGCAAGCAAG the “AGO2 loading enrichment factor” value was 0.22. ACCGGTGAAATGCAAGCAAG was tested, and the “AGO2 loading enrichment factor” value was 0.742. For TCTCATGAAATGCAAGCAAG, the “AGO2 loading enrichment factor” value was 0.435. With ATCAGTGAAATGCAAGCAAG the “AGO2 loading enrichment factor” value was 0.44. With GTTATTGAAATGCAAGCAAG the “AGO2 loading enrichment factor” value was 0.424. For GCCGTTGAAATGCAAGCAAG, the “AGO2 loading enrichment factor” value was 0.332. For CCCTCTGAAATGCAAGCAAG, the “AGO2 loading enrichment factor” value was 0.302. In the case of TTCGTTGAAATGCAAGCAAG, the “AGO2 loading enrichment factor” value is reported as 0.557. TATACTGAAATGCAAGCAAG was tested, and the “AGO2 loading enrichment factor” value was 0.446. TCCAATGAAATGCAAGCAAG was tested, and the “AGO2 loading enrichment factor” value was 0.376. CCAGCTGAAATGCAAGCAAG was tested, and the “AGO2 loading enrichment factor” value was 0.117. In the case of TGTGATGAAATGCAAGCAAG, the “AGO2 loading enrichment factor” value is reported as 0.337. In the case of CGCACTGAAATGCAAGCAAG, the “AGO2 loading enrichment factor” value is reported as 0.252. With AGGGCTGAAATGCAAGCAAG the “AGO2 loading enrichment factor” value was 0.284. For TTGCGTGAAATGCAAGCAAG, the “AGO2 loading enrichment factor” value was 0.0965. For GAACTTGAAATGCAAGCAAG, the “AGO2 loading enrichment factor” value was 0.103. ATTTTTGAAATGCAAGCAAG was tested, and the “AGO2 loading enrichment factor” value was 0.222. In the case of GCGTATGAAATGCAAGCAAG, the “AGO2 loading enrichment factor” value is reported as 0.296. CTTATTGAAATGCAAGCAAG was tested, and the “AGO2 loading enrichment factor” value was 0.31. In the case of CAGTCTGAAATGCAAGCAAG, the “AGO2 loading enrichment factor” value is reported as 0.282. In the case of AAGAATGAAATGCAAGCAAG, the “AGO2 loading enrichment factor” value is reported as 0.381. In the case of TTACATGAAATGCAAGCAAG, the “AGO2 loading enrichment factor” value is reported as 0.404. In the case of TTAAATGAAATGCAAGCAAG, the “AGO2 loading enrichment factor” value is reported as 0.47. With CTATTTGAAATGCAAGCAAG the “AGO2 loading enrichment factor” value was 0.351. In the case of TTTACTGAAATGCAAGCAAG, the “AGO2 loading enrichment factor” value is reported as 0.559. With TTCTTTGAAATGCAAGCAAG the “AGO2 loading enrichment factor” value was 0.287. In the case of GCTCATGAAATGCAAGCAAG, the “AGO2 loading enrichment factor” value is reported as 0.176. CCTTTTGAAATGCAAGCAAG was tested, and the “AGO2 loading enrichment factor” value was 0.322. In the case of TACCATGAAATGCAAGCAAG, the “AGO2 loading enrichment factor” value is reported as 0.515. CTCCTTGAAATGCAAGCAAG was tested, and the “AGO2 loading enrichment factor” value was 1.12. For AAGAGTGAAATGCAAGCAAG, the “AGO2 loading enrichment factor” value was 0.472. With AAGCATGAAATGCAAGCAAG the “AGO2 loading enrichment factor” value was 0.217. For GGGCGTGAAATGCAAGCAAG, the “AGO2 loading enrichment factor” value was 3.37. In the case of CAGGCTGAAATGCAAGCAAG, the “AGO2 loading enrichment factor” value is reported as 0.0726. With AGGGTTGAAATGCAAGCAAG the “AGO2 loading enrichment factor” value was 1.51. AGCTATGAAATGCAAGCAAG was tested, and the “AGO2 loading enrichment factor” value was 0.269. GCGCCTGAAATGCAAGCAAG was tested, and the “AGO2 loading enrichment factor” value was 0.459. CAGTTTGAAATGCAAGCAAG was tested, and the “AGO2 loading enrichment factor” value was 0.169. For TTAGGTGAAATGCAAGCAAG, the “AGO2 loading enrichment factor” value was 0.602. In the case of GGGAGTGAAATGCAAGCAAG, the “AGO2 loading enrichment factor” value is reported as 4.22. In the case of TATCATGAAATGCAAGCAAG, the “AGO2 loading enrichment factor” value is reported as 0.58. With AGCCCTGAAATGCAAGCAAG the “AGO2 loading enrichment factor” value was 0.381. With CTCAATGAAATGCAAGCAAG the “AGO2 loading enrichment factor” value was 0.431. In the case of TAATTTGAAATGCAAGCAAG, the “AGO2 loading enrichment factor” value is reported as 0.402. ACCAATGAAATGCAAGCAAG was tested, and the “AGO2 loading enrichment factor” value was 0.357. AACAGTGAAATGCAAGCAAG was tested, and the “AGO2 loading enrichment factor” value was 0.36. TGGAATGAAATGCAAGCAAG was tested, and the “AGO2 loading enrichment factor” value was 0.613. TAATATGAAATGCAAGCAAG was tested, and the “AGO2 loading enrichment factor” value was 0.374. In the case of GTACTTGAAATGCAAGCAAG, the “AGO2 loading enrichment factor” value is reported as 0.306. For CGCCATGAAATGCAAGCAAG, the “AGO2 loading enrichment factor” value was 0.448. With ATGCATGAAATGCAAGCAAG the “AGO2 loading enrichment factor” value was 0.173. AACTTTGAAATGCAAGCAAG was tested, and the “AGO2 loading enrichment factor” value was 0.333. With AGCTTTGAAATGCAAGCAAG the “AGO2 loading enrichment factor” value was 0.171. For AGATCTGAAATGCAAGCAAG, the “AGO2 loading enrichment factor” value was 0.39. For GATTCTGAAATGCAAGCAAG, the “AGO2 loading enrichment factor” value was 0.408. With TCTTGTGAAATGCAAGCAAG the “AGO2 loading enrichment factor” value was 0.572. In the case of GTGTTTGAAATGCAAGCAAG, the “AGO2 loading enrichment factor” value is reported as 0.374. In the case of ATCTGTGAAATGCAAGCAAG, the “AGO2 loading enrichment factor” value is reported as 0.384. With TTCTATGAAATGCAAGCAAG the “AGO2 loading enrichment factor” value was 0.455.
